# Measured values reported in PMC4336329 (PLoS ONE, 2015).
# The campaign covered roughly 310,000 compounds. About 14,000 (4.5%) showed an effect of 50% or more. The effect is printed as a negative number. The list shows a part of the results.
# Target: human ether-à-go-go-related gene (hERG) potassium channel (human, UniProt Q12809)
# Experiment: primary screen, population patch clamp on CHO cells stably expressing hERG
# 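Further: peak tail current of the secondary pulse compared with the same well before compound.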
# Chain of human ether-à-go-go-related gene (hERG) potassium channel (Q12809 whole entry, looked up): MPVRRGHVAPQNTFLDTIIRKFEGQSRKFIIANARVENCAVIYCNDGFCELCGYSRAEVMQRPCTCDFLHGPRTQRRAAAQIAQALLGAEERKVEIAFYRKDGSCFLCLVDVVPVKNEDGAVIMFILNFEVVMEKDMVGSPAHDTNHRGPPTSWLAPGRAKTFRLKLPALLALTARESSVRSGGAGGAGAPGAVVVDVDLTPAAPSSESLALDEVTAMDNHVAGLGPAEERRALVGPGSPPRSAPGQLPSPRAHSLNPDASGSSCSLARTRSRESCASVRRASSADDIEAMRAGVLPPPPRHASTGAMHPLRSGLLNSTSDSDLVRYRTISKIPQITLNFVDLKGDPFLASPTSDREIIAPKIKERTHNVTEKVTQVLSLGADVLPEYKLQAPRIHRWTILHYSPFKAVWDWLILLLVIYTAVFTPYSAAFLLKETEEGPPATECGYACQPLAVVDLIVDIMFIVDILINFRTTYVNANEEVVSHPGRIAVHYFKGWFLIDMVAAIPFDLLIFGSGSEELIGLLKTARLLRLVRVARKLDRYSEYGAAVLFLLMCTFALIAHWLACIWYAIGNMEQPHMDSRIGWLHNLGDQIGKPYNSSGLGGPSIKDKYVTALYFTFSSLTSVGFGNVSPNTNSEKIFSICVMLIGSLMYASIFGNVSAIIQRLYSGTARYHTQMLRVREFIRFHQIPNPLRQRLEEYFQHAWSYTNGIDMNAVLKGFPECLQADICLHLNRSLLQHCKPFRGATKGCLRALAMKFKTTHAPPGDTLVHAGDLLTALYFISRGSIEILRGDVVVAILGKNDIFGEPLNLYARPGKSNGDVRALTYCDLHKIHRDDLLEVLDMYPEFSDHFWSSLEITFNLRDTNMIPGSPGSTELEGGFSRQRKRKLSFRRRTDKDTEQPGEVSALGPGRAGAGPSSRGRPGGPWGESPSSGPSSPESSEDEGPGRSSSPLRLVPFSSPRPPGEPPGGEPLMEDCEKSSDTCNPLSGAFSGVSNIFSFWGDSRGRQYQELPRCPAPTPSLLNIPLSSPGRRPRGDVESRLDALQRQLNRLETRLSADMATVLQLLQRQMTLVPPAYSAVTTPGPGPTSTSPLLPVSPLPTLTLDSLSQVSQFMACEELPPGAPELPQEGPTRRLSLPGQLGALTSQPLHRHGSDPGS
row,Compound,"hERG current change (%, negative = inhibition) at 10uM [%]"
1,O=C(CCN1C(=O)c2ccccc2C1=O)NCc1ccncc1,-4.61
2,CC(C)NCCOCCOc1ccc(Cl)cc1Br.O=C(O)C(=O)O,-32.2
3,CCOc1ccc(C(=O)NCC(=O)N2CCN(C/C=C/c3ccccc3)CC2)cc1OCC,-41.7
4,CC1=Nc2ccccc2N=C(NC(=O)CN2CCN(c3ccc(F)cc3)CC2)C1c1ccccc1 (stereo not drawn),-0.775
5,Cc1ccc(NC(=O)CN2CCN(Cc3ccccc3)CC2)c(Br)c1.Cl,-72.5
6,Cn1c2ccc(F)cc2c2ncn(CC3CCCO3)c(=O)c21 (stereo not drawn),6.05
7,CCOC(=O)c1ccc(NC(=O)C(C)Sc2nc(O)c(-c3ccccc3)c(=O)[nH]2)cc1 (stereo not drawn),23.8
8,Cc1ccc(-c2cc(C(=O)N3CCCc4ccccc43)no2)cc1,-75.6
9,Cc1cccc(NC(=S)NNC(=O)c2cccc([N+](=O)[O-])c2)c1,26.4
10,COc1ccc(N2CC(NC(=O)c3ccc4ccccc4c3)CC2=O)cc1OC (stereo not drawn),-24
11,CN(Cc1c[nH]c2ccccc12)C1CCCCC1,-3.54
12,O=C1c2cccc3cccc(c23)C(=O)N1c1ccccn1,-0.425
13,CSc1nc2cc(Oc3cccc(Cl)c3Cl)c(Cl)cc2[nH]1,8.71
14,CCOc1ccc(C(=O)/C=C/c2cc(OC)c(OC)c(OC)c2)cc1,-12.6
15,CC(=O)c1cccc(NC(=O)N2CCCc3ccccc32)c1,-11.8
16,C=CCSC1=NN2CCS(=O)(=O)N=C2S1,13.4
17,O=C(CSc1nncs1)N1c2ccccc2Sc2ccccc21,6.14
18,CC(C)Cn1c(SCc2nc3ccccc3c(=O)[nH]2)nc2ccccc2c1=O,-0.541
19,CC(NC(=O)c1ccc(F)cc1)c1ccccc1 (stereo not drawn),-6.64
20,CCc1ccc(C(=O)COC(=O)c2ccco2)cc1,9.18
21,CCOC(=O)C1CCCN(Cc2ccc(OC)cc2OC)C1 (stereo not drawn),-52.7
22,C/C(=N\NC(N)=O)c1c(F)cccc1F,9.8
23,O=C(NC1CCCc2ccccc21)c1cccc(S(=O)(=O)N2CCOCC2)c1 (stereo not drawn),29.4

row,Compound,"hERG current change (%, negative = inhibition) at 10uM [%]"
1,O=C1CCCN2N=C(SCC(=O)Nc3nccs3)SC2=N1,4.77
2,CN(Cc1ncc[nH]1)C(=O)c1cc(COc2c(F)cccc2F)on1,-4.68
3,COCCn1c(=S)[nH]c2sc3c(c2c1=O)CCC(C)C3 (stereo not drawn),2.51
4,Cc1ccc(Nc2nc(/N=C/N(C)C)n[nH]2)cc1C,-12.5
5,Cc1nc2c(cc1C#N)C(=O)c1ccccc1-2,-13.2
6,CCOCCCNC(=O)CN1C(=O)COc2ccc(S(=O)(=O)N3CCC(C)CC3)cc21,6.25
7,CC1=NCCN1S(=O)(=O)c1cc(Cl)ccc1Cl,2.09
8,COc1ccc(CNc2ccc(-c3ccccc3OC)nn2)cc1,-13.1
9,CCOC(=O)c1ccccc1NC(=O)/C(C)=C/C(=O)O,-2.16
10,Cn1c(SCC(=O)N2CCCCCC2)nc2c([nH]c3ccccc32)c1=O,6.91
11,Clc1ccc(Nc2ccc(Cl)nn2)cc1,23.7
12,Cc1cc(C)cc(-n2c(O)c(C=Nc3ccc(N4CCOCC4)cc3)c(=O)[nH]c2=S)c1,-17.2
13,Cc1occc1-c1nnc(SCC(=O)Nc2ccc(F)cc2)n1Cc1ccccc1,-49.4
14,Cc1ccc(CN2C(=O)CCC2C(=O)NCCCN2CCOCC2)cc1 (stereo not drawn),25.6
15,CC(C)N(C(C)C)S(=O)(=O)c1ccc(Cl)nc1,4.68
16,COc1ccccc1-c1cn[nH]c1-c1ccc(OCC(=O)NN)cc1O,9.17
17,COc1cccc(CN(c2ccc3c(c2)CCC3)S(=O)(=O)c2ccc(-n3cnnn3)c(OC)c2)c1,21.2
18,COc1ccc(CCN(C)Cc2ccc(OC)c(OCc3ccccc3)c2)cc1OC,-81.6
19,CC(=O)C[C@H]1c2cc(F)ccc2S(=O)(=O)N1c1ccc(N(C)C)cc1,6.36
20,CC(C)c1ccc(O)c(NC(=S)NC(=O)CCc2ccccc2)c1,17
21,O=C(C(c1ccccc1)c1ccccc1)N1CCN(c2ccccn2)CC1,5.55
22,CC(C)(CNC(=O)c1cccc(NS(=O)(=O)c2ccc(Br)cc2)c1)N1CCOCC1,-33.7
